According to PubChem BioAssay AID485344 (National Center for Advancing Translational Sciences (NCATS), 2010):
The campaign covered roughly 340,000 compounds. About 6,900 (2%) were called active. No stated cut-off is given here; in the data, active means inhibition above about 30%; inactive means below that, where a call was filed. This is a selection; strong and weak results do not stand in their true shares. The source gives no active or inactive call for entries shown without one.

Each molecule was assayed against D(2) dopamine receptor (Homo sapiens) (UniProt P14416) (assay: HTS Assay for Allosteric Antagonists of the Human D2 Dopamine Receptor: Primary Screen for Antagonists). Settings: HEK293 TREx D2 cells, calcium flux, dopamine EC80; at 10 µM; stronger effect = higher value.
Sequence of UniProt P14416 (P14416 whole entry, looked up): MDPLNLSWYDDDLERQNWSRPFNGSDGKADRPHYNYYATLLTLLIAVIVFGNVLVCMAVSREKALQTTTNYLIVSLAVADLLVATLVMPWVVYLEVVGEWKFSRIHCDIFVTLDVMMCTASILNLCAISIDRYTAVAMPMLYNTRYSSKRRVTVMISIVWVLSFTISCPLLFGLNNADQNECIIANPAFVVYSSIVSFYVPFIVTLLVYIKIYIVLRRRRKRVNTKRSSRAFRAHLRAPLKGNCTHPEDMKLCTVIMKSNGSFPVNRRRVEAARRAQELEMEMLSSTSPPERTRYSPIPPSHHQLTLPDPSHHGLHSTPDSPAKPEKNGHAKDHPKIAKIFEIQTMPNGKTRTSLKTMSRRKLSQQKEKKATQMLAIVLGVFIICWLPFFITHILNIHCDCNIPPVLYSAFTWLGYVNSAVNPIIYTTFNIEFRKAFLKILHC
In short: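 Cells plated overnight at 30 C with tetracycline; no-wash calcium dye, 30–90 min RT; 10 s baseline; compound pinned; 180 s read; EC80 dopamine added; another 180 s read.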
Further: 0% is about no effect.

Structure (SMILES) | inhibition
CC(C)c1cnc2c(c1SCC(=O)Nc1ccccc1C(F)(F)F)c(=O)n(C)c(=O)n2C | 1.38%
Cc1ccc(CSc2nc(-c3cccs3)ccc2C#N)cc1 | 5.32%
COc1cccc(-c2nn(C)c3sc(C(=O)NCCc4ccc(Cl)cc4)cc23)c1 | 0.707%
O=C(CCC(=O)OCC(=O)c1ccc(Cl)cc1)Nc1ccc(Oc2ccccc2)cc1 | 9.25%
CCCn1cc(S(=O)(=O)c2cc(C)ccc2C)c(=O)c2cc(F)c(N3CCOCC3)cc21 | 8.49%
CCc1ccc2occ(CC(=O)Nc3c(C(=O)Nc4ccc(C)cc4)oc4ccccc34)c2c1 | -2.5%
CC(C)=CCN1CCN(Cc2c[nH]c3ccccc23)CC1CCO (configuration not stated) | active: 47.3%
Cc1ccc(-n2nnnc2CNC(=O)c2ccccc2S(C)(=O)=O)cc1C | 15.3%
FC(F)(F)c1cc(-c2ccccc2)nc2cc(-c3ccc(Br)cc3)nn12 | 2.73%
Cc1cccc(C(=O)NC2CCN(CC(=O)NCc3ccccc3F)CC2)c1 | active: 41.6%
COc1ccc(-c2cn3nc(N4CCCC(C(=O)Nc5ccc(C)c(C)c5)C4)sc3n2)cc1 (configuration not stated) | -15.1%
O=C(Nc1cc2c(cc1C(=O)c1ccccc1Cl)OCCO2)c1ccc(Br)cc1 | 10.8%
Cc1nc2c(-c3ccccc3)c(C)nn2c(C)c1CCC(=O)NCc1ccccc1Cl | -11.7%
CCC(=O)N1c2nc(-c3ccco3)nn2C2(CCCCC2)[C@@H]2CCCC[C@@H]21 | 4.54%
Cc1ccc(CSc2nc3cccnc3n2Cc2ccc(C(=O)NCCc3ccccc3)cc2)cc1 | 1.28%
O=C(c1cccc(Br)c1)N1CCN(Cc2cc(=O)n3nc(-c4ccccc4)sc3n2)CC1 | 3.09%
CCS(=O)(=O)N1CCc2cc(C(=O)Nc3cccc(Cl)c3C)ccc21 | -2.48%
CCOC(=O)c1c(C)[nH]c(C)c1C(=O)COC(=O)c1ccc(S(=O)(=O)C(F)F)cc1 | active: 38.6%
COc1ccc(N2CCN(C(CNC(=O)C(=O)NCCCN(C)C)c3cccnc3)CC2)cc1 (configuration not stated) | -0.0984%
COc1ccccc1NCc1cccn1-c1nnc(N2CCOCC2)s1 | 2.2%
O=C(NC1CC1)C1CCN(C2CCN(C(=O)Cc3ccc(F)cc3)CC2)CC1 | active: 34.4%

Structure (SMILES) | inhibition
Cc1oc2ncn(C)c(=O)c2c1C(=O)NC(C)c1ccccc1 (configuration not stated) | -3.78%
O=C(CSC1=Nc2ccccc2N=C(c2ccc(F)cc2)C1)NCc1ccc(F)cc1 | 2.46%
Cc1ccc(C)c(CN2C(=O)CSc3ccc(C(=O)NCc4ccc(F)cc4)cc32)c1 | 3.47%
Cc1ccc(CSCc2ccc(C(=O)NCCc3ccc(Cl)cc3)o2)cc1 | 0.424%
Cc1cc(C)cc(N2C(=O)CSC23C(=O)N(CC(=O)NCCc2ccccc2)c2ccccc23)c1 (configuration not stated) | -1.58%
CCOC(=O)C1=C(CS(=O)(=O)c2ccc(C)cc2)NC(=O)NC1c1ccc(C(C)C)cc1 (configuration not stated) | -17.6%
CN(C(=O)c1ccc2c(c1)N(Cc1cccc(Cl)c1)C(=O)c1ccccc1S2=O)C1CCCCC1 (configuration not stated) | 0.181%
Cn1c(CN2CCCC2)nc2cc(NC(=O)COc3ccccc3)ccc21 | active: 47.5%
COc1ccc(NC(=O)CCS(=O)(=O)c2cccc3nonc23)cc1Cl | 6.81%
CCc1nnc(SCc2nc(-c3ccc(OC)c(OC)c3)oc2C)c2cc3sc(C)cc3n12 | -10.7%
Cc1ccc(/C=C/c2onc(C)c2S(=O)(=O)N2CCC(C(=O)NCc3ccc(C)o3)CC2)cc1 | -4.74%
O=C(N/N=C/c1cc(Br)c(Br)o1)c1cc2ccccc2o1 | active: 33.1%
COc1cccc(C(=O)NC(=S)Nc2ccc(N3CCCC3)cc2)c1 | active: 56.5%
COc1cccc(CNC(=O)Cc2ccc(NC(=O)N3CCCCc4ccccc43)cc2)c1OC | -22.2%
Cc1cccc(NC(=O)CSc2nc(-c3ccccc3)cn2-c2ccccc2)c1C | 4.41%
Cc1ccc(C)c(-n2c(CCC(=O)O)ccc2-c2ccc(Cl)cc2)c1 | 16.3%
COc1ccc(Nc2ncc(C(=O)N3CCN(c4cccc(Cl)c4)CC3)c3ccccc23)cc1 | -2.65%
COCCn1ccc2c(OCC(=O)Nc3cccc(OC)c3)cccc2c1=O | 5.7%
COc1ccc(CNC(=O)c2c(O)nc3cc(C)ccn3c2=O)cc1 | 13.2%
Cc1nc(C)c(-c2ccc(SCC(=O)Nc3ccc(C)c(F)c3)nn2)s1 | 13.3%
CCc1ccc2ncc3c(-c4ccc(F)cc4)nn(CC(=O)NCc4ccccc4)c3c2c1 | 5.65%

Structure (SMILES) | inhibition
Cc1ccc(C(C)C)c(OCC(=O)Nc2ccc(C(=O)OC3CCCCC3)cc2)c1 | 24.1%
CCOc1ccc(-c2nc(SCC(=O)Nc3ccc(C)c(C)c3)n3[nH]c(=O)cc3n2)cc1 | -4.4%
CC(C)CC(C(=O)NCc1ccc(F)cc1)N1Cc2ccccc2C1=O (configuration not stated) | 1.59%
COc1ccc(OCCCCn2c(-c3ccc(Cl)cc3)nc3ccccc3c2=O)cc1 | 2.78%
CCCCCOC(=O)CSc1ncnc2c1sc1nc(N3CCOCC3)c3c(c12)CCCC3 | 6.76%
Cc1cc(Nc2cccc(C)c2C)n2cnnc2n1 | -14.9%
Cc1ccc(C(=O)CC2(O)C(=O)N(CCc3ccccc3)c3ccc(Cl)cc32)cc1 (configuration not stated) | -14.3%
Cn1c(=O)c2c(-c3ccccc3Cl)n(-c3cc(Cl)ccc3O)cc2n(C)c1=O | -0.64%
COc1cc(NC(=O)CCc2nc(-c3cccs3)no2)cc(OC)c1OC | -8.78%
Cc1ccc2c(=O)cc(C(=O)Nc3cccc(Cl)c3C)oc2c1C | -0.207%
COc1ccc(C2C(O)C(c3c[nH]c4ccccc34)=NN2C(=O)CCl)cc1 (configuration not stated) | active: 31.6%
COc1ccc(NC(=S)Nc2ccccc2Cl)cn1 | active: 40.5%
CC(=O)c1ccc(N2CCN(S(=O)(=O)c3ccc(-c4cc(C(F)(F)F)on4)s3)CC2)cc1 | 6.41%
O=C(NCc1cccnc1)c1cn(-c2ccccc2)nc1-c1ccccc1 | active: 43.9%
Cc1ccccc1OCC(=O)OCc1cc(=O)n2nc(C3CCCCC3)sc2n1 | -1.13%
CCc1c(-c2ccccc2)nc2ccccc2c1C(=O)NCCc1ccccc1 | 1.01%
CCC(C)(C)C(=O)Nc1nnc(CCc2ccccc2)s1 | active: 43.8%
Cc1csc2nc(COc3ccccc3NC(=O)c3ccco3)cc(=O)n12 | -11.7%
CSc1cccc(NC(=O)Cn2c3ncccc3c(=O)n2-c2ccc(C)cc2)c1 | -0.196%
Cc1ccc(C)c(CN2C(=O)c3ccccc3S(=O)(=O)c3ccc(C(=O)N4CCCCCC4)cc32)c1 | 9.12%
